Laboratory results from patent US6911316 (THROMBOTECH, dated 2005).

Target: single chain urokinase type plasminogen activator (scuPA) (UniProt P00749)
Test: cell-based or functional assay

enhancement of scuPA-mediated fibrinolysis (plasma clot): ≤ 14 fold
B1: soluble urokinase plasminogen activator receptor (suPAR) (receptor)
chain: not shown
